Measurements: paper PMC9911399, “Two distinct binding modes provide the RNA-binding protein RbFox with extraordinary sequence specificity”
Positions count from the first letter of the chain named. This is one part of the list.

T1: RBFOX1 RRM (Homo sapiens, UniProt Q9NWB1 109-208)
T1 sequence: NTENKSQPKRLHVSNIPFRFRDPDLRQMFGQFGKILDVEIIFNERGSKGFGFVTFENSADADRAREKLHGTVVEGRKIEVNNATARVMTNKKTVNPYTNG

B1: CUUCAUC (DNA:RNA)
RNA: GGGAGACCGGAAUUCAGAUUGUCCCUUCAUCUUAAAUCCCGUCGUAGCCACCA
DNA 1: CAATCTGAATTCCGGTCTCCC
DNA 2: TGGTGGCTACGACGGGATT
B2: CCUUGUC (DNA:RNA)
RNA: B1 RNA with U26C, C28U, A29G
DNA 1: CAATCTGAATTCCGGTCTCCC
DNA 2: TGGTGGCTACGACGGGATT
B3: CCCAGAU (DNA:RNA)
RNA: B1 RNA with U26C, U27C, C28A, A29G, U30A, C31U
DNA 1: CAATCTGAATTCCGGTCTCCC
DNA 2: TGGTGGCTACGACGGGATT
B4: ACGGUUA (DNA:RNA)
RNA: B1 RNA with C25A, U26C, U27G, C28G, A29U, C31A
DNA 1: CAATCTGAATTCCGGTCTCCC
DNA 2: TGGTGGCTACGACGGGATT
B5: AUUCACC (DNA:RNA)
RNA: B1 RNA with C25A, U30C
DNA 1: CAATCTGAATTCCGGTCTCCC
DNA 2: TGGTGGCTACGACGGGATT
B6: ACGACUU (DNA:RNA)
RNA: B1 RNA with C25A, U26C, U27G, C28A, A29C, C31U
DNA 1: CAATCTGAATTCCGGTCTCCC
DNA 2: TGGTGGCTACGACGGGATT
B7: GCCGCCG (DNA:RNA)
RNA: GGGAGACCGGAAUUCAGAUUGUCCGCCGCCGUUAAAUCCCGUCGUAGCCACCA
DNA 1: CAATCTGAATTCCGGTCTCCC
DNA 2: TGGTGGCTACGACGGGATT
B8: AUGAGGA (DNA:RNA)
RNA: B1 RNA with C25A, U27G, C28A, A29G, U30G, C31A
DNA 1: CAATCTGAATTCCGGTCTCCC
DNA 2: TGGTGGCTACGACGGGATT
B9: AAGAGUA (DNA:RNA)
RNA: B1 RNA with C25A, U26A, U27G, C28A, A29G, C31A
DNA 1: CAATCTGAATTCCGGTCTCCC
DNA 2: TGGTGGCTACGACGGGATT
B10: CGCGUCU (DNA:RNA)
RNA: B7 RNA with G25C, C26G, C29U, G31U
DNA 1: CAATCTGAATTCCGGTCTCCC
DNA 2: TGGTGGCTACGACGGGATT
B11: AACCGCU (DNA:RNA)
RNA: B7 RNA with G25A, C26A, G28C, C29G, G31U
DNA 1: CAATCTGAATTCCGGTCTCCC
DNA 2: TGGTGGCTACGACGGGATT
B12: CCACAAG (DNA:RNA)
RNA: B1 RNA with U26C, U27A, U30A, C31G
DNA 1: CAATCTGAATTCCGGTCTCCC
DNA 2: TGGTGGCTACGACGGGATT
B13: AACGCAG (DNA:RNA)
RNA: B7 RNA with G25A, C26A, C30A
DNA 1: CAATCTGAATTCCGGTCTCCC
DNA 2: TGGTGGCTACGACGGGATT
B14: CACCGCG (DNA:RNA)
RNA: B7 RNA with G25C, C26A, G28C, C29G
DNA 1: CAATCTGAATTCCGGTCTCCC
DNA 2: TGGTGGCTACGACGGGATT
B15: UGGUCUG (DNA:RNA)
RNA: B7 RNA with G25U, C26G, C27G, G28U, C30U
DNA 1: CAATCTGAATTCCGGTCTCCC
DNA 2: TGGTGGCTACGACGGGATT
B16: AAGUUAC (DNA:RNA)
RNA: B1 RNA with C25A, U26A, U27G, C28U, A29U, U30A
DNA 1: CAATCTGAATTCCGGTCTCCC
DNA 2: TGGTGGCTACGACGGGATT
B17: ACGCCAG (DNA:RNA)
RNA: B7 RNA with G25A, C27G, G28C, C30A
DNA 1: CAATCTGAATTCCGGTCTCCC
DNA 2: TGGTGGCTACGACGGGATT
B18: AUCCGCU (DNA:RNA)
RNA: B1 RNA with C25A, U27C, A29G, U30C, C31U
DNA 1: CAATCTGAATTCCGGTCTCCC
DNA 2: TGGTGGCTACGACGGGATT
B19: CCGUAAA (DNA:RNA)
RNA: B1 RNA with U26C, U27G, C28U, U30A, C31A
DNA 1: CAATCTGAATTCCGGTCTCCC
DNA 2: TGGTGGCTACGACGGGATT
B20: UUGUGUA (DNA:RNA)
RNA: B1 RNA with C25U, U27G, C28U, A29G, C31A
DNA 1: CAATCTGAATTCCGGTCTCCC
DNA 2: TGGTGGCTACGACGGGATT

What follows are binders tested against T1, RBFOX1 RRM (assay: EMSA; HiTS-Eq, 1 nM pool, 10 min; buffer printed only for the single-RNA assays: 10 mM Tris pH 7.5, 150 mM NaCl, 3.4 mM EDTA, 0.001% NP-40, 30 C). Details: tags: His6 N-terminal (pET28a); label: 5' 32P.
How it was run: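 Purified wild-type or mutant RbFox RRM at increasing concentrations was equilibrated with 1 nM of 5′-radiolabelled RNA carrying 7 randomized nucleotides for 10 min in 50 µL. Unbound RNA was separated by 8% native PAGE and sequenced. Relative association constants came from read-count changes of each RNA species compared with the control reaction, normalised to the cognate motif.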
For B1, the binding signal was 0.00151 KA relative to UGCAUGU. B2 was tested, and the binding signal was 0.00915 KA relative to UGCAUGU. In the case of B3, the binding signal is reported as 0.00621 KA relative to UGCAUGU. B4 was tested, and the binding signal was 0.00606 KA relative to UGCAUGU. B5 was tested, and the binding signal was 0.00129 KA relative to UGCAUGU. With B6 the binding signal was 0.00346 KA relative to UGCAUGU. For B7, the binding signal was 0.0158 KA relative to UGCAUGU. For B8, the binding signal was 0.00447 KA relative to UGCAUGU. In the case of B9, the binding signal is reported as 0.00259 KA relative to UGCAUGU. With B10 the binding signal was 0.0103 KA relative to UGCAUGU. B11 was tested, and the binding signal was 0.00231 KA relative to UGCAUGU. B12 was tested, and the binding signal was 0.00421 KA relative to UGCAUGU. B13 was tested, and the binding signal was 0.00646 KA relative to UGCAUGU. In the case of B14, the binding signal is reported as 0.00124 KA relative to UGCAUGU. For B15, the binding signal was 0.0221 KA relative to UGCAUGU. With B16 the binding signal was 0.00621 KA relative to UGCAUGU. In the case of B17, the binding signal is reported as 0.00699 KA relative to UGCAUGU. For B18, the binding signal was 0.00392 KA relative to UGCAUGU. For B19, the binding signal was 0.00489 KA relative to UGCAUGU. With B20 the binding signal was 0.0164 KA relative to UGCAUGU.
